The whole screen tested about 44,000 compounds, of which about 340 (0.77%) were called active. Roughly 5% stayed inconclusive and do not appear here. Calls come from the whole dose curve; as a rule, active = well fitted inhibition curve with a large enough effect; inconclusive = small, poorly fitted or top-dose-only effect; inactive = flat fitted curve, though single readings scatter. The list shows a part of the results.
test: Acumen qHTS Assay for Inhibitors of the mTORC1 Signaling Pathway in MEF (Tsc2-/-, p53-/-) Cells: Sytravon; conditions: phospho-rpS6 immunofluorescence/PI, 24 h; series mostly up to 38.3 µM; activity change, negative = inhibition: at the top concentration;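 note: plate controls were DMSO for no effect and rapamycin for full effect; nearly all actives have a fitted effect of over 50% in size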
Summary of the method: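 Plate MEFs (Tsc2-/-, p53-/-, empty vector) in DMEM/10% FBS; after 24 h add compound, incubate 24 h at 37 degree Celsius; fix in PFA/TX-100, block, stain phospho-rpS6 and 10 uM PI; scan at 488 nm; report % positive cells.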

SMILES	activity change, negative = inhibition
Cc1cccc(OCC(=O)Nc2cccc(-c3nc4ccccc4s3)c2)c1	inactive: -4.64%
Cc1ccc(Cl)cc1N1CCN(C(=O)c2cn(C)c3ccc(S(=O)(=O)N4CCCCC4)cc3c2=O)CC1	inactive: 1.42%
CC(C)CNc1cc(NC2CCCCC2)c2c3c(onc13)-c1ccccc1C2=O	inactive: -3.2%
O=S(=O)(Nc1cccc(-c2ccc(N3CCCCC3)nn2)c1)c1ccc(F)cc1F	inactive: 0.26%
CSc1ccc(CCNC(=O)CCc2c(C)nc3c4cccnc4nn3c2C)cc1	inactive: -13%
O=C(CC1N=C2c3ccccc3N=C(SCc3cccc(F)c3)N2C1=O)NC1CCCCC1 (stereo not given)	inactive: -0.136%
CCSc1nc2sc3c(c2c(=O)n1-c1ccc(C)cc1)CCCC3	inactive: 6.32%
COc1cccc(CNCc2c(C(=O)O)c(C)n(Cc3ccc(F)cc3Cl)c2C)c1OC	inactive: 0.835%
O=C(Nc1ccc(F)c(F)c1)c1ccc(F)c(S(=O)(=O)N2CCC3(CC2)OCCO3)c1	inactive: -1.39%
CCn1c(=O)n(CC2CCC(C(=O)NC(C)C)CC2)c(=O)c2sccc21 (stereo not given)	inactive: -9.95%
COc1ccc(NC(=O)CSc2c(C(C)C)cnc3c2c(=O)n(C)c(=O)n3C)c(OC)c1	inactive: 3.27%
COc1ccc2cc3c(N)nn(C(=O)c4ccc(F)cc4Cl)c3nc2c1	inactive: -21.8%
CCOC(=O)c1cc(CC)sc1NC(=O)COc1ccccc1C	inactive: 0.857%
Cc1cc(NC(=O)CN2CCC(O)CC2)nc2c1c(=O)oc1ccccc12	inactive: -11.4%
COc1ccc(C(=O)NCC(c2ccc3c(c2)OCO3)N2CCN(C)CC2)cc1OC (stereo not given)	inactive: -0.48%
CCOC(=O)c1c(C)[nH]c(C)c1S(=O)(=O)N1CCC(C(=O)Nc2ccc(OC)c(OC)c2)CC1	inactive: -2.64%
CCN1CCN(c2ncnc3c2cnn3-c2ccc(F)cc2)CC1	inactive: 5.81%
COc1ccc(CC(=O)Nc2ccc(-c3nc4ccccc4s3)c(C)c2)cc1	inactive: -2.04%
COc1ccc(NC(=O)c2ccc3oc(=O)c(S(=O)(=O)c4ccc(F)cc4)cc3c2)c(OC)c1	inactive: -1.06%
CC(C)c1nc2sc3c(N4CCCCC4)ncnc3c2c2c1CCCC2	inactive: -7.46%
CCOc1ccc(-n2c(SCC(=O)c3ccccc3)nc3c([nH]c4ccccc43)c2=O)cc1	inactive: -16.6%
COC(=O)c1ccc(CSc2nc3ccncc3n2Cc2ccc(F)cc2)cc1	inactive: -8.7%
COc1ccc(C(=O)Oc2ccc(C3NC(=O)c4c(sc5c4CCN(C)C5)N3)cc2OC)cc1 (stereo not given)	inactive: -19%
Cc1ccc(Cl)cc1N1CCN(C(=O)c2cc(S(=O)(=O)N3CCCCC3)cn2C)CC1	inactive: 0.0245%

SMILES	activity change, negative = inhibition
COCC(C)Nc1ncnc2c1cnn2-c1cccc(Cl)c1 (stereo not given)	inactive: -2.01%
CCc1ccc(C(=O)c2cn(CC(=O)Nc3ccc4c(c3)OCCO4)c3ccc(C)cc3c2=O)cc1	inactive: 6.57%
CCOC(=O)c1c(C)[nH]c(C)c1S(=O)(=O)NCC(=O)N1CCN(c2cc(Cl)ccc2C)CC1	inactive: -2.67%
O=C(CCSCc1ccccc1Cl)N1CCN(c2ccc(F)cc2)CC1	inactive: 10.1%
CC(Oc1ccccc1)C(=O)N1CCN(Cc2cc(=O)n3nc(-c4ccccc4Cl)sc3n2)CC1 (stereo not given)	inactive: 1.59%
COCc1cc(C)nc2sc3c(c12)NC(c1ccccc1C(=O)O)N(c1ccc(OC)cc1)C3=O (stereo not given)	inactive: 3.72%
CC(=O)c1ccc(NC(=O)COc2ccccc2-c2nc(-c3ccccc3)no2)cc1	inactive: -4.26%
Cc1ccc(C)c(NC(=O)c2nnn(CC(=O)Nc3cccc(C)c3C)c2N)c1	inactive: -0.208%
O=c1c2c3c(sc2n(Cc2cc(=O)n4ccccc4n2)c(=O)n1-c1ccccc1)CCC3	inactive: -16.4%
O=c1cc(CN2CCN(S(=O)(=O)c3ccccc3)CC2)nc2sc(-c3ccccc3Cl)nn12	inactive: 5.18%
Cc1ccc(NC(=O)C(Cc2ccccc2)NS(=O)(=O)c2cccs2)cc1Cl (stereo not given)	inactive: -3.15%
O=C(CS(=O)(=O)c1nc(-c2ccc(Cl)cc2)cn1-c1ccccc1)Nc1ccc(F)cc1F	inactive: -0.0758%
COc1ccccc1CNC(=O)CN1C(=O)c2cccnc2Oc2ccccc21	inactive: -1.02%
Cc1ccc(-c2noc(CSc3nnc(C)n3-c3ccc(C)cc3)n2)cc1	inactive: -18%
COc1ccc(NC(=O)CCCc2nnc3n(CCC(C)C)c(=O)c4sccc4n23)cc1Cl	inactive: 2.41%
COc1ccc(OCCSc2nc3ccccc3n2CC(=O)N2CCOCC2)cc1	inactive: -0.806%
COc1ccc(/C=C/c2onc(C)c2S(=O)(=O)N2CCC(C(=O)N3CCCCC3)CC2)cc1	inactive: -6.86%
COc1ccc(-c2cc(C(C)=O)c(C)n2CCC(=O)NC2CCCCC2)cc1	inactive: -0.0164%
CCOc1ccc(CNC(=O)C2CCN(C(=O)c3sccc3-n3cccc3)CC2)cc1	inactive: 0.348%
Cc1ccc(-n2c(SCCC(C)C)nc3sc4c(c3c2=O)CC(C)(C)OC4)cc1	inactive: -0.156%
CC(C)Oc1ccc(C(=O)N2CC(=O)Nc3ccc(F)cc3C2c2ccc(F)cc2)cc1 (stereo not given)	inactive: -4.43%
CCOc1ccc(CNC(=O)CN2C(=O)C3CCCCN3c3ccc(C(=O)N4CCCC4)cc32)cc1 (stereo not given)	inactive: 1.58%
CN(C)c1cccc(C(=O)N2CCC(c3ccncc3)CC2)c1	inactive: -8.49%
COc1cc(CNc2ccc3[nH]c(=O)[nH]c3c2)cc(Br)c1OCc1ccc(F)cc1	inactive: -20.5%

SMILES	activity change, negative = inhibition
COc1ccccc1CNC(=O)c1cc2cc(C)ccc2n1C	inactive: -6.56%
COCCNc1ncnc2onc(-c3ccc(F)cc3)c12	inactive: 3.64%
O=C(CSc1nc(-c2ccccc2)nc2c1CCCC2)c1ccc(Cl)cc1	inactive: -12.2%
O=C(O)CCc1ccc(-c2cccs2)n1CC(=O)Nc1ccccc1C(F)(F)F	inactive: 2.17%
COc1ccc(Cn2ccc3nc(C)c(C(=O)N4CCN(c5cc(C)ccc5C)CC4)cc3c2=O)cc1	inactive: 0%
CCc1cccc(C)c1NC(=O)C(CC)n1ncn2c(cc3cc(C)ccc32)c1=O (stereo not given)	inactive: -10.3%
CCOc1ccc(CNC(=O)c2cnc3sc(N4CCCCCC4)nn3c2=O)cc1OC	inactive: -19.5%
Cc1ccc(S(=O)(=O)c2nc(S(=O)(=O)c3ccc(C)cc3)c(NC(C)C)s2)cc1	inactive: -4.36%
Cc1ccc2c(c1)CC(C)N2S(=O)(=O)c1nnc(NC(=O)C(C)C)s1 (stereo not given)	inactive: 2.95%
CCCN(C(=O)c1sc2nc3n(c(=O)c2c1C)CCCC3)c1ccccc1C	inactive: 8.55%
CCCNC(=O)C1CCC(Cn2c(=O)c3sccc3n(CC(=O)Nc3ccccc3C)c2=O)CC1 (stereo not given)	inactive: -42%
Cc1cccc(NC(=O)C2CCN(S(=O)(=O)c3ccc4c(c3)CCCC(=O)N4)CC2)c1	inactive: -2.42%
COc1ccc(-c2cc(C(F)(F)F)nc(SCCC(=O)Nc3cccc(O)c3)n2)cc1	inactive: -12.3%
Cc1cc(=O)n(CC(=O)Nc2cccc([N+](=O)[O-])c2)c(-n2nc(C)cc2C)n1	inactive: 0.178%
CC(NC(=O)c1ccc2nc(Cc3ccccc3)oc2c1)c1ccccc1 (stereo not given)	inactive: -7.38%
COC(=O)c1c(NC(=O)c2cc3nc(-c4ccc(Br)cc4)cc(C(F)(F)F)n3n2)sc2c1CCCC2	inactive: 0.124%
CCc1ccc(Nc2cc(C(=O)NCCCN(C)c3ccccc3)c3ccccc3n2)cc1	inactive: -3.62%
COc1ccc(OC)c(NC(=O)N2CCC(N3CCN(Cc4ccc(F)cc4)C(=O)C3=O)CC2)c1	inactive: 6.23%
CCc1noc(-c2ccc(N(C)Cc3ccc(OC)cc3)c([N+](=O)[O-])c2)n1	inactive: -16.1%
CCOc1ccc(CCNC(=O)c2sc3ncccc3c2-n2c(C)ccc2C)cc1	inactive: -11.4%
COc1ccc(NC(=O)Cn2cc(C(=O)C3CCCCC3)c3ccccc32)cc1	inactive: 2.42%
Cc1ccc(C)c(Nc2nc3nonc3nc2Nc2cccc(C)c2C)c1	inactive: -9.32%
COc1ccc(Cl)cc1NC(=O)N1CCC(CN2CCCCCC2)CC1	inactive: -9.64%
Cc1cccc(Cn2cc(C(=O)Nc3ccc(S(N)(=O)=O)cc3)ccc2=O)c1	inactive: -1.11%

SMILES	activity change, negative = inhibition
O=C(C1CCN(S(=O)(=O)Cc2ccccc2)CC1)N1CCN(c2ccccc2F)CC1	inactive: 2.23%
CCc1ccccc1NC(=O)C(C)n1nc(-c2ccc(C)c(C)c2)ccc1=O (stereo not given)	inactive: -14.1%
CCCCNC(=O)CN1C(=O)COc2ccc(S(=O)(=O)N3CCCC3)cc21	inactive: -3.52%
CCCn1c2ccccc2c2cnn(CC(=O)NCc3cc(OC)ccc3OC)c(=O)c21	inactive: -3.27%
CC1=C(C(=O)OCC2CCCCC2)C(c2ccc(Cl)cc2Cl)CC(=O)N1 (stereo not given)	inactive: -4.23%
O=C(Nc1ccccc1OCc1cc(=O)n2ccccc2n1)c1ccccc1F	inactive: 9.18%
COC(=O)c1ccc(Cn2nnc3sc4c(c3c2=O)CCCC4)cc1	inactive: -4.31%
CCc1ccccc1OCCSc1nnc(-c2cc(OC)c(OC)c(OC)c2)o1	inactive: -7.95%
CCOC(=O)c1cccc(NC(=O)C(Cc2ccccc2)NS(=O)(=O)c2cccc3nsnc23)c1 (stereo not given)	inactive: -11.9%
CCN(CC)c1ccc(NC(=O)c2cc3c(=O)n4cccc(C)c4nc3n2C)c(C)c1	inactive: 0.191%
Cc1cc(S(=O)(=O)NCC(c2ccc(N(C)C)cc2)N2CCOCC2)ccc1F (stereo not given)	inactive: 4.28%
O=C(CSC1=Nc2ccccc2N=C(c2ccc(F)cc2)C1)NCc1ccc(Cl)cc1	inactive: -1.97%
CC(=O)c1ccc(NC(=O)c2nc3ccccc3n(C)c2=O)cc1	inactive: -6.62%
CCn1nc(C)c2c(-c3ccccc3)cc(=O)n(C(C)C(=O)NCc3ccc(C)cc3)c21 (stereo not given)	inactive: 0%
CCCCCNC(=O)CCn1c(=O)[nH]c2ccccc2c1=O	inactive: -1.32%
COc1ccc(/C=C/c2nc3ccccc3c(=O)n2-c2cccc(C(F)(F)F)c2)cc1	inactive: 8.49%
Cc1ccc(CN(C(=O)COc2ccc(Cl)cc2Cl)C2CCS(=O)(=O)C2)o1 (stereo not given)	inactive: 3.97%
Cc1[nH]c(=O)[nH]c(=O)c1S(=O)(=O)N1CCN(c2cccc(Cl)c2)CC1	inactive: -0.0302%
CCCNC(=O)Cn1nc(-c2ccc(C)c(C)c2)c2cnc3ccc(F)cc3c21	inactive: -9.84%
Cc1ccc(C)c(CN2C(=O)CSc3ccc(C(=O)NCCc4ccc(Cl)cc4)cc32)c1	inactive: 1.52%
O=C(Nc1cccc(C(F)(F)F)c1)Nc1nnc(N2CCCCC2)s1	inactive: 2.94%
N#Cc1c(Nc2cccc(F)c2)sc(C(=O)c2ccc(Cl)cc2)c1N	inactive: 0.393%
CCN(c1ccccc1)S(=O)(=O)c1ccc2[nH]cc(C(=O)NCc3ccc(C)cc3)c(=O)c2c1	inactive: -5%
